{"source": "PubChem BioAssay AID624418", "about": "(National Center for Advancing Translational Sciences (NCATS), 2012)", "note": "Screen size: about 410,000 compounds; about 530 (0.13%) were called active. Inconclusive results, whose numbers are uncertain, are shown with a selection of clear calls. Calls follow the shape of the dose curve; as a rule, active = well fitted inhibition curve with a large enough effect; inconclusive = small, poorly fitted or top-dose-only effect, or another doubt; inactive = no such curve, though single readings can be large or run the other way. A potency beside an inconclusive call is a rough fit, not a confirmed value. % is scaled to controls: 0 for no effect and ±100 for the full control effect; potency is read from the fitted curve at half-maximal effect.", "data": [{"assay": "qHTS of GLP-1 Receptor Inverse Agonists: Cytotox Screen", "conditions": "HEK293 cAMP-luciferase reporter cells, luminescence, 24 h; activity change, negative = inhibition: at 38.3 µM (top of the series) unless noted", "method_in_brief": "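Step one: seed cells (200 cells/uL, DMEM with 10% Nu serum, 1% pen-strep). Step two: 12-hour incubation at 37 deg C. Step three: pin 23 nL compound, incubate 24 hr. Step four: add luciferase reagent, read luminescence 12 min later.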", "values": [{"smiles": "O=C1/C(=C/c2cccs2)SC(=S)N1C1CCS(=O)(=O)C1", "note": "(stereo not given)", "Potency": "inconclusive: 11.2 µM [inhibitor, single point]"}, {"smiles": "O=C1/C(=C\\c2cccc([N+](=O)[O-])c2O)SC(=S)N1Cc1ccccc1", "Potency": "inconclusive: 11.2 µM [inhibitor, partial curve]"}, {"smiles": "O=C(N/N=C/c1ccccc1O)C1CCCC1", "Potency": "inconclusive: 31.6 µM [inhibitor, partial curve, poor fit]"}, {"smiles": "CCn1c(=N)n(CC(=O)C23CC4CC(CC(C4)C2)C3)c2ccccc21", "activity change, negative = inhibition": "inactive: 3.15%"}, {"smiles": "Cn1cc(CC(=O)NCCCN2CCCC2=O)c2ccccc21", "Potency": "inconclusive: 20 µM [inhibitor, single point]"}, {"smiles": "NC(=O)c1ccc(NC(=O)COC(=O)C23CC4CC(CC(C4)C2)C3)cc1", "Potency": "inconclusive: 2 µM [inhibitor, full curve, poor fit]"}, {"smiles": "O=C(CS(=O)(=O)c1ccc(Cl)cc1)Nc1nnc(-c2cccs2)o1", "activity change, negative = inhibition": "inactive: 4.24%"}, {"smiles": "CCCC1(c2ccccc2)NC(=O)N(CC(=O)NCC2COc3ccccc3O2)C1=O", "note": "(stereo not given)", "Potency": "inconclusive: 11.2 µM [inhibitor, single point]"}, {"smiles": "CCOc1cc2[nH]c(=S)n(Cc3ccc(C(=O)NCCCN(CC)CC)cc3)c(=O)c2cc1OCC", "Potency": "inconclusive: 10 µM [inhibitor, partial curve, poor fit]"}, {"smiles": "COc1ccc(N2CCN(CCCNC(=O)c3cc4sccc4n3C)CC2)cc1", "Potency": "inconclusive: 10 µM [inhibitor, single point]"}, {"smiles": "Nc1nc(-c2ccccc2)c(-c2ccccc2)s1", "activity change, negative = inhibition": "inactive: 1.16%"}, {"smiles": "O=C1C2C3C=CC(CC3)C2C(=O)N1/N=C/c1ccccc1O", "note": "(stereo not given)", "Potency": "inconclusive: 3.16 µM [inhibitor, full curve, poor fit]"}, {"smiles": "CCOC(=O)c1cnc2ccc(C)cc2c1Nc1ccc(N(CC)CC)cc1", "Potency": "inconclusive: 20 µM [inhibitor, single point]"}, {"smiles": "COC(=O)C1=C(C)N(Cc2ccccc2)C(=NCc2ccccc2)N[C@H]1c1cccc(C(F)(F)F)c1", "Potency": "inconclusive: 28.2 µM [inhibitor, single point]"}, {"smiles": "CCCCCCCNC(=O)C1(CC2CC(c3cccc(Br)c3)=NO2)CCN(C(=O)Cc2ccc(F)cc2)CC1", "note": "(stereo not given)", "Potency": "inconclusive: 0.501 µM [inhibitor, full curve, poor fit]"}, {"smiles": "Cc1cc(C)cc(C(O)c2ncc(-c3ccc(Cl)cc3)[nH]2)c1", "note": "(stereo not given)", "activity change, negative = inhibition": "inactive: -0.138%"}, {"smiles": "COc1ccc(C2=Nn3c(nnc3C3CCCCC3)SC2)cc1OC", "activity change, negative = inhibition": "inactive: 1.95%"}, {"smiles": "CCCCN1CCc2c([nH]c3ccccc23)C1=O", "activity change, negative = inhibition": "inactive: 9.95%"}, {"smiles": "S=C(NCCc1ccccc1)N1CCc2ccccc2C1", "Potency": "inconclusive: 28.2 µM [inhibitor, single point]"}, {"smiles": "CC(C)CCNC(=O)C(c1ccc(O)cc1)N(Cc1cccs1)C(=O)C1COc2ccccc2O1", "note": "(stereo not given)", "Potency": "inconclusive: 12.6 µM [inhibitor, single point]"}, {"smiles": "CCn1c(CN2CCCCCC2=O)nnc1SCc1cnc(-c2ccccc2)s1", "Potency": "inconclusive: 31.6 µM [inhibitor, single point]"}, {"smiles": "O=C(Nc1ccc(F)cc1F)Nc1ccc(F)cc1F", "Potency": "inconclusive: 10 µM [inhibitor, partial curve]"}, {"smiles": "CCc1ccccc1NC(=O)[C@@H](c1ccccc1)N1Cc2ccccc2C1=O", "activity change, negative = inhibition": "inactive: -5.21%"}, {"smiles": "COc1ccc(S(=O)(=O)/N=C2\\C=C(Nc3ccc(O)cc3)C(=O)c3ccccc32)cc1", "Potency": "inconclusive: 2 µM [inhibitor, partial curve, poor fit]"}, {"smiles": "Cc1cc2nc(-c3ccc(SCc4ccccn4)nc3)[nH]c2cc1C", "Potency": "inconclusive: 20 µM [inhibitor, single point]"}, {"smiles": "COc1ccc(C(=O)COC(=O)CCCC(=O)Nc2cc(C(F)(F)F)ccc2Cl)cc1", "activity change, negative = inhibition": "inactive: 4.62%"}, {"smiles": "COc1ccc(NC(=O)COc2ccc3c(c2)CCC3)cc1", "activity change, negative = inhibition": "inactive: -7.73%"}, {"smiles": "O=C(NCCc1ccc(Cl)cc1)c1cc(-c2ccc(Cl)cc2)n[nH]1", "activity change, negative = inhibition": "inactive: 0.0123%"}, {"smiles": "CC(C)COc1ccc(C(=O)Nc2ccc(SC(F)F)cc2)cc1", "activity change, negative = inhibition": "inactive: 0.438%"}, {"smiles": "CC1CCC(NC(=O)CC(C)(C)Cc2nc3ccccc3c(=O)[nH]2)CC1", "note": "(stereo not given)", "Potency": "inconclusive: 31.6 µM [inhibitor, partial curve, poor fit]"}, {"smiles": "COCCCNC(=O)C(=O)Nc1ccc2c(c1)N(S(=O)(=O)c1cccs1)CCC2", "Potency": "inconclusive: 31.6 µM [inhibitor, partial curve, poor fit]"}, {"smiles": "Fc1ccc(CNC(=S)Nc2ccc(Cl)cc2)cc1", "Potency": "inconclusive: 28.2 µM [inhibitor, single point]"}, {"smiles": "CC1(c2nnc(Cc3ccccc3)o2)CC(c2ccc(OC(F)(F)F)cc2)=NO1", "note": "(stereo not given)", "Potency": "inconclusive: 7.94 µM [inhibitor, partial curve, poor fit]"}, {"smiles": "S=c1[nH]nc(C2CCCCC2)n1/N=C/c1cccs1", "Potency": "inconclusive: 11.2 µM [inhibitor, single point]"}, {"smiles": "Cc1ccc(NC(=S)NC(=O)c2ccc(Br)o2)c(C)c1", "activity change, negative = inhibition": "inactive: -8.13%"}, {"smiles": "NC(=O)N=Nc1c2[nH]c3ccccc3nc-2c2ccccc12", "Potency": "inconclusive: 8.91 µM [inhibitor, partial curve, poor fit]"}, {"smiles": "CN(C(=O)CSc1nc(N)cc(N)n1)C1CCS(=O)(=O)C1", "note": "(stereo not given)", "Potency": "inconclusive: 22.4 µM [inhibitor, single point]"}, {"smiles": "Cc1ccc[n+](C(C)C(=O)Nc2ccc([N+](=O)[O-])cc2C)c1", "note": "(stereo not given)", "activity change, negative = inhibition": "inactive: 2.19%"}, {"smiles": "O=C(CSc1n[nH]c(=O)[nH]c1=O)Nc1cccc(S(=O)(=O)N2CCOCC2)c1", "activity change, negative = inhibition": "inactive: 1.42%"}, {"smiles": "Cc1cc(N2CCCCC2)nc(NCc2ccccc2)n1", "Potency": "inconclusive: 12.6 µM [inhibitor, partial curve, poor fit]"}, {"smiles": "Oc1ccccc1Nc1nc(NCC2CCCO2)c2ccccc2n1", "note": "(stereo not given)", "Potency": "inconclusive: 11.2 µM [inhibitor, partial curve]"}, {"smiles": "Cc1onc(-c2ccccc2)c1C(=O)NC1CCCCC1C", "note": "(stereo not given)", "Potency": "inconclusive: 25.1 µM [inhibitor, single point]"}, {"smiles": "O=C(c1ccc(C(F)(F)F)cc1)C1CCCN(Cc2cccn2-c2ncccn2)C1", "note": "(stereo not given)", "Potency": "inconclusive: 28.2 µM [inhibitor, single point]"}, {"smiles": "C=CCn1c(OCc2ccccc2)n[nH]c1=S", "Potency": "inconclusive: 10 µM [inhibitor, single point]"}, {"smiles": "O=C(OCC(=O)N1CCCC1)c1c(Cl)cccc1Cl", "activity change, negative = inhibition": "inactive: -2.94%"}, {"smiles": "Cc1cccc(C)c1OCC(=O)N/N=C/c1cccnc1", "Potency": "active: 12.6 µM"}, {"smiles": "C/C(=N\\NC(=S)NCCc1ccccc1)c1ccc(Cl)cc1", "Potency": "inconclusive: 22.4 µM [inhibitor, partial curve, poor fit]"}, {"smiles": "COc1ccc(NC(=O)C(=O)N2N=C(C(C)C)CC2(O)C(F)(F)F)cc1", "note": "(stereo not given)", "activity change, negative = inhibition": "inactive: 0.124%"}, {"smiles": "Cc1ccc(C=Nc2ccccc2C(N)=O)cc1", "activity change, negative = inhibition": "inactive: -12.5%"}, {"smiles": "N#CC1=C(N)NC(=S)C(C(N)=O)C1c1ccccc1F", "note": "(stereo not given)", "Potency": "inconclusive: 8.91 µM [inhibitor, partial curve]"}, {"smiles": "CCOC(=O)c1cccc(NS(=O)(=O)c2ccc3[nH]c4c(c3c2)CCCC4)c1", "Potency": "inconclusive: 10 µM [inhibitor, single point]"}, {"smiles": "Cc1nc2ncccn2c1-c1csc(Nc2ccccc2)n1", "Potency": "inconclusive: 7.94 µM [inhibitor, partial curve]"}, {"smiles": "CCC(CC)C(=O)Nc1ccccc1SCc1cc(=O)c2cccc(C)c2[nH]1", "activity change, negative = inhibition": "inactive: 0.825%"}, {"smiles": "O=C(C[n+]1ccc(/C=C/c2ccccc2)cc1)c1ccc2c(c1)OCCO2", "Potency": "inconclusive: 7.08 µM [inhibitor, partial curve]"}, {"smiles": "Cc1ccc(Cn2c(C)c(CNCC(C)c3ccccc3)c(C(=O)O)c2C)cc1", "note": "(stereo not given)", "activity change, negative = inhibition": "inactive: -1.03%"}, {"smiles": "O=S(=O)(NCc1ccc(Cl)cc1)c1ccc2[nH]c3c(c2c1)CCCC3", "Potency": "inconclusive: 12.6 µM [inhibitor, single point]"}, {"smiles": "COc1ccc(NC(=S)NCCc2ccccc2)c(C)c1", "Potency": "inconclusive: 22.4 µM [inhibitor, single point]"}, {"smiles": "CS(=O)(=O)N1CCN(c2ccc([N+](=O)[O-])c(NCCN3CCOCC3)c2)CC1", "Potency": "inconclusive: 28.2 µM [inhibitor, single point]"}, {"smiles": "CCOC(=O)/C=C/C(=O)OCC(=O)NCc1ccccc1", "activity change, negative = inhibition": "inactive: -27.7%"}, {"smiles": "CCCCOc1ccc(CONS(=O)(=O)c2ccc(NC(C)=O)cc2)cc1Cl", "Potency": "inconclusive: 12.6 µM [inhibitor, single point]"}, {"smiles": "Cc1[nH]cnc1C(=O)N/N=C/c1ccc([N+](=O)[O-])s1", "Potency": "inconclusive: 10 µM [inhibitor, single point]"}, {"smiles": "CC1(C)Cc2c(cnn2-c2ccccc2)-c2c1c1ccccc1n2CC(O)CBr", "note": "(stereo not given)", "activity change, negative = inhibition": "inactive: -28.5%"}, {"smiles": "O=C(Nc1nccs1)c1ccc([N+](=O)[O-])cc1Cl", "activity change, negative = inhibition": "inactive: -4.95%"}, {"smiles": "CC1CC2=C(CC1/C=N/NC(N)=S)C(C)(C)CCC2", "note": "(stereo not given)", "Potency": "active: 2.24 µM"}, {"smiles": "Cc1ccc(NC(=O)NNC(=O)Cn2nc(-c3ccccc3)c(-c3ccccc3)c(C#N)c2=O)cc1", "Potency": "inconclusive: 6.31 µM [inhibitor, partial curve, poor fit]"}, {"smiles": "CC(=O)Oc1ccc2oc(/C=C/N(C)C)c([N+](=O)[O-])c2c1", "Potency": "inconclusive: 12.6 µM [inhibitor, partial curve, poor fit]"}, {"smiles": "Cc1ccc2nc(Cl)c(/C=N/NC(=O)[C@H]3C[C@@H]3c3ccccc3)cc2c1", "Potency": "inconclusive: 10 µM [inhibitor, single point]"}, {"smiles": "Cc1ccc(NS(=O)(=O)c2cccc(C(=O)NC3CCN(Cc4ccccc4)CC3)c2)cc1", "Potency": "inconclusive: 31.6 µM [inhibitor, single point]"}, {"smiles": "COc1ccccc1NC(=O)c1c(Nc2ccccc2C)sc(C(=O)Nc2cccc(Cl)c2)c1N", "Potency": "inconclusive: 28.2 µM [inhibitor, single point]"}, {"smiles": "O=C(CCSc1nnc2ccc3ccccc3n12)Nc1ccc(F)cc1", "activity change, negative = inhibition": "inactive: -2.75%"}]}]}
